Source: publication PMC4336329 (PLoS ONE, 2015)
About 14,000 (4.5%) of roughly 310,000 compounds showed an effect of 50% or more. The effect is printed as a negative number. This is one part of the list.

Biological target: human ether-à-go-go-related gene (hERG) potassium channel (human, UniProt Q12809)
Test: primary screen, population patch clamp on CHO cells stably expressing hERG
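Further: peak tail current of the secondary pulse compared with the same well before compound.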

Chain of human ether-à-go-go-related gene (hERG) potassium channel (Q12809 whole entry, looked up): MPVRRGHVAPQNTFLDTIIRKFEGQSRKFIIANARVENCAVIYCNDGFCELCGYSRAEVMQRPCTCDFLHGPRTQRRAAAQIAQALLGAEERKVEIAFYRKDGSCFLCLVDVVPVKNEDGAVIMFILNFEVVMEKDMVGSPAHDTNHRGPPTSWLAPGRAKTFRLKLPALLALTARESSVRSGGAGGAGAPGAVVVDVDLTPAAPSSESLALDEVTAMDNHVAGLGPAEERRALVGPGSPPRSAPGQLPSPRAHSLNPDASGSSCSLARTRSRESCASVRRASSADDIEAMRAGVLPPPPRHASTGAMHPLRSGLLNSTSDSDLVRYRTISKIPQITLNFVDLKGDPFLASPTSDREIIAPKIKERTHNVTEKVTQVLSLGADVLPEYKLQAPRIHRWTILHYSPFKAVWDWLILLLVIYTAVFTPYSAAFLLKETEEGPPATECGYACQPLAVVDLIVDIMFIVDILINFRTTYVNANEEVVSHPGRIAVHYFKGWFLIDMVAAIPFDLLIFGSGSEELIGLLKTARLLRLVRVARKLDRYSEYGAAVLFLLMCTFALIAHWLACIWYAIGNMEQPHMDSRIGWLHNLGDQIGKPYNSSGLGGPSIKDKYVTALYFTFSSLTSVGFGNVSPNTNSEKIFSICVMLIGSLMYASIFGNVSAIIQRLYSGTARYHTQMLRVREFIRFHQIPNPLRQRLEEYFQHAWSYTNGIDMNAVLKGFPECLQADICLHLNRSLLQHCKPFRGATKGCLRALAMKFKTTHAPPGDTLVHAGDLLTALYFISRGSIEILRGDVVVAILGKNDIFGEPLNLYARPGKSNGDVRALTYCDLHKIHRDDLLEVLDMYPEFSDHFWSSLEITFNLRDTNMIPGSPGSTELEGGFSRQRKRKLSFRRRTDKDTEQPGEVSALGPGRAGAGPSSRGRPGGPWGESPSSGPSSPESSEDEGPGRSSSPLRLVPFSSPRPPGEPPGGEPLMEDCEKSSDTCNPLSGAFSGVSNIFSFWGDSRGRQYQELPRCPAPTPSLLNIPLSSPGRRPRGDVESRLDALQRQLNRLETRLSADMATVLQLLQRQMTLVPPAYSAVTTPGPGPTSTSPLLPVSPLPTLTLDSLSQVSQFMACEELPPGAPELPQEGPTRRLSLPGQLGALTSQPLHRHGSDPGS

Structure (SMILES) | hERG current change (%, negative = inhibition) at 10uM
O=C(CSc1ccc2ccccc2c1)NC1CCCc2ccccc21 (centres unmarked) | 8.2%
COc1cc(C(=O)Oc2ccccc2)ccc1OCc1c(C)noc1C | 13.2%
Cc1ccc(C)c(NS(=O)(=O)c2c(C)ccc3nsnc23)c1 | -3.02%
CCOc1ccc(N2C(=O)CC(N3CCN(C4CCc5ccccc5C4)CC3)C2=O)cc1 (centres unmarked) | -71.5%
Cc1cccc(NS(=O)(=O)c2ccc3c(c2)OCCO3)c1 | -3.57%
CC(=O)Nc1ccc(S(=O)(=O)N(C)CC(=O)Nc2cccc(S(=O)(=O)N3CCCC3)c2)cc1 | -8.1%
O=C(NCCCN1CCOCC1)c1c(F)cccc1F | -0.65%
Cn1c(SCC(=O)N2CCN(S(=O)(=O)c3ccc(Cl)cc3)CC2)nc2ccccc21 | -32.3%
C=CCSc1nnc(NC(=O)Cn2cnc3c2c(=O)n(C)c(=O)n3C)s1 | 19%
COc1ccc(NC(=O)Cc2nnc(SCC(=O)c3ccc(F)cc3)n2C)cc1 | 14%
Cc1csc2ncc(C(=O)N3CCc4ccccc43)c(=O)n12 | 15.1%
COc1cccc(-n2c(=O)[nH]cc(C(=O)Nc3ccc(NC(C)=O)cc3)c2=O)c1 | 5.09%
CCOc1ccc(C(=O)CC(C(=O)O)N2CCN(Cc3ccccc3)CC2)cc1 (centres unmarked) | 11%
O=C(O)/C=C/c1ccc([N+](=O)[O-])o1 | 22.2%
COC(=O)Cn1cc(C(=O)OC)cc(Br)c1=O | 6.25%
Cc1csc(SCC(=O)Nc2cccc(S(=O)(=O)N3CCCC3)c2)n1 | -25%
Clc1ccc(/C=N/NC2=Nc3cccc4cccc2c34)cc1 | 0.137%
CN(C)S(=O)(=O)N1CCN(c2ccc(Cl)cc2)CC1 | -14.4%
Cc1cc(C)nc(NC(=S)Nc2cccc(Cl)c2Cl)c1 | 33%

Structure (SMILES) | hERG current change (%, negative = inhibition) at 10uM
CCc1ccccc1N1C(=O)C2CC(C)=C(C)CC2C1=O (centres unmarked) | 17.8%
CCCn1nnnc1NCc1ccc(N(C)C)cc1 | 1.95%
CCC(C)N(C(=O)COC(=O)c1[nH]c(C)c(C(C)=O)c1C)C1CCS(=O)(=O)C1 (centres unmarked) | -1.68%
COc1ccc(S(=O)(=O)N2CCOCC2)cc1NC(=O)c1ccc(OCC(C)C)c(OC)c1 | -29.4%
Cc1cc(C)cc(C(=O)OCC(=O)N2CCCC2)c1 | 9.79%
O=c1[nH]c2ccc(S(=O)(=O)N3CCCCC3)cc2o1 | 8.95%
O=C(N/N=C\c1cccnc1)c1ccc(Cl)s1 | 6.85%
Cc1sc2nc(C3CC3)nc(N3CCN(S(=O)(=O)c4ccc(F)cc4)CC3)c2c1C | -0.18%
CCC1=C(OC(=O)N(CC)CC)N2C(=O)OC(=NCC3CC3)[C@]2(Cc2ccccc2)[C@H]2C1=CC[C@H]1C(=O)N(CC(=O)OC)C(=O)[C@H]12 | -10.3%
O=C(O)C(=O)/C(=C\c1ccc(Cl)cc1)c1ccc2ccccc2n1 | -10.2%
CC1CN(C(=O)c2ccc3c(c2)OCO3)CC(C)O1 (centres unmarked) | -8.76%
COc1cc(C=O)ccc1OC(=O)c1cccnc1 | 12.2%
COc1ccc(NC(=O)CCCn2c(=O)c3sccc3n(Cc3cccc(C)c3)c2=O)cc1 | 12.7%
CC1(C)Cc2ccccc2C(=NC(Cc2c[nH]c3ccccc23)C(=O)O)N1 (centres unmarked) | 10.9%
Cc1c(CCOC(=O)CC23CC4CC(CC(C4)C2)C3)sc[n+]1CC(=O)c1ccccc1.[Br-] | -59.4%
CCOc1ccc(N2CC(C(=O)Nc3ccc(S(=O)(=O)N4CCCCC4)cc3)CC2=O)cc1 (centres unmarked) | -7.53%
COC(=O)c1nnn(-c2nonc2N)c1CSc1nc2ccccc2s1 | -0.516%
COc1ccccc1-c1nnc2sc(COc3ccc(Cl)cc3)nn12 | -37.8%
N#C/C(=C/c1ccc(F)cc1)C(N)=S | 36.4%

Structure (SMILES) | hERG current change (%, negative = inhibition) at 10uM
O=C(O)CCn1cc(C=C2C(=O)NC(=O)NC2=O)c(-c2cc3ccccc3oc2=O)n1 | 61.9%
O=C(CCc1nc(-c2ccccc2F)no1)NCCN1CCc2ccccc2C1 | -50.4%
CN(CC(=O)Nc1cccc(F)c1)CC(=O)Nc1ccccc1[N+](=O)[O-] | -15%
O=C(/C=C/c1ccc(Cl)cc1Cl)n1cccn1 | 6.36%
CC(C)c1ccc(NC(=O)c2cc3c(=O)n(C)c4ccccc4c3n2C)cc1 | 6.96%
c1ccc2[nH]cnc2c1 | 9.04%
Cc1cc(NC(=O)CNCC(c2ccccc2)N(C)C)c([N+](=O)[O-])cc1C (centres unmarked) | -32.8%
Cc1ccccc1-n1c(=O)cc(N2CCc3ccccc3C2)[nH]c1=O | -17.1%
Cc1ccccc1OCC(=O)Nc1ccccc1-c1ccccc1 | -4.81%
CCOC(=O)c1c(S(=O)(=O)Nc2ccc(F)cc2C)c(C)n(C)c1C | -9.73%
CCOC(=O)c1sc(NC(=S)NC(=O)c2ccccc2)c(C(=O)OCC)c1C | 15.2%
O=Cc1c(NC2CCCCC2)c2ccccc2[nH]c1=O | 2.88%
CCN(CC)CCNC(=O)Cn1nc(Cc2cccnc2)c2ccccc2c1=O | 4.74%
Cc1ccccc1-n1c([C@@H]2C[C@H]2c2ccccc2)n[nH]c1=S | 8.61%
O=C(CCS(=O)(=O)c1ccc2c(c1)NC(=O)CO2)NCCc1ccccc1 | -0.677%
CC1=CSC2=NS(=O)(=O)CCN12 | 12.7%
CC(C)(C)n1nnnc1C(c1ccccn1)N(Cc1ccccc1)Cc1ccc(Cl)cc1 (centres unmarked) | 16.3%
CC1CCN(C(=O)/C(=C\c2ccccc2)NC(=O)c2ccccc2)CC1 | -15.8%
